# Test results as given in a collection of fitness landscapes (doi:10.1016/j.celrep.2020.107928).
# The full ranking holds about 81,000 sequences; the median of “one-hybrid fitness for binding parS DNA” is about -0.17, and the highest 2% start at about 0.51. Some of the results follow.
# B1: Caulobacter ParB omega fusion; a variant is named by its letters at X, in order, B8GW30 (parent)
# chain: MESVVVGEPGMSEGRRGLGRGLSALLGEVDAAPAQAPGEQLGGSREAPIEILQRNPDQPRRTFREEDLEDLSNSIREKGVLQPILVRPSPDTAGEYQIVAGERAWRAAQRAGLKTVPIMVRELDDLAVLEIGIIENVQRADLNVLEEALSYKVLMEKFERTQENIAQTIGKSXSHVANXMRLLXLPDEVQSYLVSGELTAXHARAIAAAADPVALAKQIIEGGLSVRETEALARKAPNLSAGKSKGGRPPRVKDTDTQALESDLSSVLGLDVSIDHRGSTGTLTITYATLEQLDDLCNRLTRGI
# Variants of: B1
# Assay: one-hybrid fitness for binding parS DNA (scaled: cognate 1, non-cognate 0); higher = stronger binding
# Details: with parS DNA site
# In short: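 In E. coli USO, a HIS3 reporter with its site placed 19 bp from the promoter was used to select Caulobacter ParB variants randomised at four specificity codons. Growth lasted 48 hours at 37°C on histidine-free M9 containing 0.1 mM IPTG and 5 mM 3-AT. Fitness was taken as the log change in variant-to-wild-type read ratio from Illumina sequencing of pre- and post-selection plasmids, rescaled between the non-cognate and cognate sites.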
row,Variant,one-hybrid fitness for binding parS DNA
1,AQRC,≤ 0.2
2,IRHG,≤ 0.2
3,GRCE,≤ 0.2
4,LRRQ,≤ 0.2
5,HVIT,≤ 0.2
6,FTVT,≤ 0.2
7,GFKT,≤ 0.2
8,VVVV,≤ 0.2
9,HVPM,≤ 0.2
10,QMPL,≤ 0.2
11,ACHG,≤ 0.2
12,TAYN,≤ 0.2
13,WRYT,≤ 0.2
14,QIDT,≤ 0.2
15,NNMS,≤ 0.2
16,WAGT,≤ 0.2
17,RTEL,≤ 0.2
18,RYFQ,≤ 0.2
19,LNTV,≤ 0.2
20,GHYN,≤ 0.2
21,IPAR,≤ 0.2
22,LMDC,≤ 0.2
23,AETD,≤ 0.2
24,DNIV,≤ 0.2
25,YKSL,≤ 0.2
26,PKIS,≤ 0.2

row,Variant,one-hybrid fitness for binding parS DNA
1,RVGV,≤ 0.2
2,YTCT,≤ 0.2
3,WITG,≤ 0.2
4,PCSY,≤ 0.2
5,LTPE,≤ 0.2
6,YNYG,≤ 0.2
7,RARD,≤ 0.2
8,QSDS,≤ 0.2
9,ENQP,≤ 0.2
10,AAYQ,≤ 0.2
11,QSKP,≤ 0.2
12,PAVW,≤ 0.2
13,KFKR,≤ 0.2
14,ELLM,≤ 0.2
15,KDYA,≤ 0.2
16,SKMT,≤ 0.2
17,CVPN,≤ 0.2
18,PQIS,≤ 0.2
19,FNDG,≤ 0.2
20,EDPM,≤ 0.2
21,CRNR,≤ 0.2
22,PNAS,≤ 0.2
23,YAWT,≤ 0.2
24,LPHR,≤ 0.2
25,RDAC,≤ 0.2
26,RKVI,≤ 0.2

row,Variant,one-hybrid fitness for binding parS DNA
1,QLNP,≤ 0.2
2,QCLM,≤ 0.2
3,EAEA,≤ 0.2
4,CLPC,≤ 0.2
5,YLLG,≤ 0.2
6,RNRQ,≤ 0.2
7,PCNI,≤ 0.2
8,YGIL,≤ 0.2
9,ELQA,≤ 0.2
10,NAQT,≤ 0.2
11,TRQD,≤ 0.2
12,PMNA,≤ 0.2
13,MNQT,≤ 0.2
14,IEHG,≤ 0.2
15,PSKH,≤ 0.2
16,YYTG,≤ 0.2
17,YHST,≤ 0.2
18,SGRT,≤ 0.2
19,VIWL,≤ 0.2
20,RQEW,≤ 0.2
21,HVKL,≤ 0.2
22,TPAW,≤ 0.2
23,PVTM,≤ 0.2
24,KFHS,≤ 0.2
25,YMVV,≤ 0.2
26,VFSR,≤ 0.2

row,Variant,one-hybrid fitness for binding parS DNA
1,ARNM,≤ 0.2
2,RRCD,≤ 0.2
3,KYVC,≤ 0.2
4,VVTM,≤ 0.2
5,TDIW,≤ 0.2
6,LYES,≤ 0.2
7,NARC,≤ 0.2
8,ATPQ,≤ 0.2
9,HTPW,≤ 0.2
10,QHNN,≤ 0.2
11,PTVD,≤ 0.2
12,EEMR,≤ 0.2
13,IRGL,≤ 0.2
14,WTFV,≤ 0.2
15,TPWC,≤ 0.2
16,HKIY,≤ 0.2
17,HKIR,≤ 0.2
18,QELW,≤ 0.2
19,DYAT,≤ 0.2
20,KRER,≤ 0.2
21,QNKG,≤ 0.2
22,TYPM,≤ 0.2
23,RPIA,≤ 0.2
24,NMHS,≤ 0.2
25,QHYQ,≤ 0.2
26,PRDI,≤ 0.2

row,Variant,one-hybrid fitness for binding parS DNA
1,FPMV,≤ 0.2
2,FATV,≤ 0.2
3,IFEL,≤ 0.2
4,PCKY,≤ 0.2
5,QLIG,≤ 0.2
6,MYCS,≤ 0.2
7,SECT,≤ 0.2
8,QGDS,≤ 0.2
9,IATR,≤ 0.2
10,IRAR,≤ 0.2
11,SLHD,≤ 0.2
12,MKCL,≤ 0.2
13,SMSA,≤ 0.2
14,WKFG,≤ 0.2
15,NCPT,≤ 0.2
16,WRSG,≤ 0.2
17,TEWL,≤ 0.2
18,VLLE,≤ 0.2
19,ATKV,≤ 0.2
20,NRPC,≤ 0.2
21,PMNY,≤ 0.2
22,RWNW,≤ 0.2
23,REIE,≤ 0.2
24,KGAS,≤ 0.2
25,SAVE,≤ 0.2
26,HRPM,≤ 0.2

row,Variant,one-hybrid fitness for binding parS DNA
1,IFHR,≤ 0.2
2,DNPG,≤ 0.2
3,PNEG,≤ 0.2
4,KQNT,≤ 0.2
5,HGDG,≤ 0.2
6,ESRQ,≤ 0.2
7,PIYC,≤ 0.2
8,LTYR,≤ 0.2
9,RAYC,0.99
10,YRNY,≤ 0.2
11,TATL,≤ 0.2
12,PLTC,≤ 0.2
13,VQWS,≤ 0.2
14,ARME,≤ 0.2
15,GPTS,≤ 0.2
16,ELQG,≤ 0.2
17,WLKQ,≤ 0.2
18,SATT,≤ 0.2
19,VCNL,≤ 0.2
20,CYCL,≤ 0.2
21,RKTR,≤ 0.2
22,DFNS,≤ 0.2
23,EVRI,≤ 0.2
